# “And” between values parts separate entries of the source, which are not always exact repeats. Equal entries are not always repeated. In all, about 420,000 compounds went through this assay and about 64,000 (15%) were called active. Inconclusive means that the source gave no clear call. Such entries were picked first, then a sample of the others. The call rests on the fitted dose curve; in most records, active means well fitted inhibition curve with a large enough effect; inconclusive means small, poorly fitted or top-dose-only effect; inactive means flat fitted curve, though single readings scatter. Potencies of inconclusive entries are doubtful fits and often do not repeat.
# Assay: qHTS for Inhibitors of human tyrosyl-DNA phosphodiesterase 1 (TDP1): qHTS in cells in absence of CPT; further: nearly all actives have a fitted effect of over 55% in size
# Conditions: DT40 Tdp1-/- hTDP1 cells, no CPT, ATP luminescence, 48 h; activity change, negative = growth inhibition: at 46.2 µM (top of the series) unless noted
# In short: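 A cellular qHTS used chicken DT40 cells lacking endogenous Tdp1 but carrying stably transfected human TDP1. Compounds were applied without camptothecin, and cell growth kinetics were judged by ATP-dependent luminescence after ≥48 hr.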
# On the % scale 0 is the no-effect control and ±100 the full control effect; potency means the concentration at half of the fitted maximal effect; tags describe the fitted curve by direction and shape.
Structure (SMILES),Potency,"activity change, negative = growth inhibition"
O=c1[nH]cccc1-c1nc2ccccc2n1Cc1ccc(Cl)cc1,"inconclusive: 23.1 µM [inhibitor, single point]",–
C/C(=C\C(=O)c1ccc(Cl)cc1)Nc1ccc(Br)cc1,–,inactive: -28.2%
CCCCOc1ccc(N(CC(=O)NC(C)(C)C)C(=O)CCC(=O)Nc2nccs2)cc1,"inconclusive: 29.1 µM [inhibitor, single point]",–
C(#Cc1ccccc1)C[N+]1(CC#Cc2cccc3ccccc23)CCCC1,active: 0.058 µM,–
CC1=NN(C(=O)Cc2ccccc2)C(O)(c2ccccc2)C1 (stereo not given),active: 4.11 µM,–
S=C(Nc1ccc2c(c1)OCO2)Nc1ccc2c(c1)OCO2,–,inactive: -17.8%
CC1(C(=O)N2CCC(CC3CC(c4ccc(Cl)cc4)=NO3)(C(=O)NCC3CCCCC3)CC2)CC1 (stereo not given),"inconclusive: 23.1 µM [inhibitor, single point]",–
COc1ccc(NCc2nc3ccccc3n2CCOc2ccccc2C)cc1,"inconclusive: 29.1 µM [inhibitor, single point]",–
COc1ccccc1-c1cc(C(F)(F)F)nc(N2CCOCC2)n1,–,inactive: -15.1%
C=C[C@]1(C)C=C2CCC3[C@](C)(CCC[C@@]3(C)C(=O)O)C2CC1 (stereo not given in full),"inconclusive: 29.1 µM [inhibitor, single point]",–
O=C(COC(=O)c1cc(Cl)ccc1O)Nc1ccc2c(c1)OCCO2,"inconclusive: 29.1 µM [inhibitor, single point]",–
Cc1nc(-c2ccc(NC(=O)c3ccco3)cc2)cs1,"inconclusive: 11.6 µM [inhibitor, partial curve]",–
Cc1ccc(S(=O)(=O)N2CCN(c3nc(-n4cnc5ccccc54)nc4ccccc34)CC2)cc1,–,inactive: -11.9%
CCn1c2ccccc2c2cc(NC(=O)C(C)OC(=O)c3ccc(NC(=O)CC#N)cc3)ccc21 (stereo not given),"inconclusive: 18.4 µM [inhibitor, single point]",–
O=C(CNC1=NCCC1)c1ccc2c(c1)OCCO2,active: 18.4 µM,–
Cn1c(=O)c2c(ncn2CC(=O)Nc2nnc(Cc3ccccc3)s2)n(C)c1=O,"inconclusive: 18.4 µM [inhibitor, partial curve, poor fit]",–
C/C(=N\NC(=O)c1ccc(NS(=O)(=O)c2cccs2)cc1)c1ccc(O)cc1O,"inconclusive: 25.9 µM [inhibitor, single point]",–
CSc1ccccc1OCc1cc(C(=O)N(C)C(C)c2nc(C)cs2)no1 (stereo not given),"inconclusive: 23.1 µM [inhibitor, single point]",–
O=C(OCc1ccccc1)c1cc(S(=O)(=O)N2CCCCC2)ccc1N1CCOCC1,"inconclusive: 18.4 µM [inhibitor, single point]",–
Cc1nc2nc[nH]n2c(=O)c1NC(=O)c1cccc(OCC(C)C)c1,–,inactive: -10.7%
Cc1ccc(-c2nnc(SCC(N)=O)nc2-c2ccc(C)cc2)cc1,"inconclusive: 20.6 µM [inhibitor, single point]",–
Nc1c(N(Cc2ccccc2)C(=O)COc2ccc(F)cc2Cl)c(=O)[nH]c(=O)n1Cc1ccccc1,–,inactive: -22.5%
COc1ccc(NC(=O)C2CCCN(c3cc(C)nc4ncnn34)C2)cc1 (stereo not given),–,inactive: -23.7%

Structure (SMILES),Potency,"activity change, negative = growth inhibition"
CC1(C(=O)NS(=O)(=O)c2cccc(C#N)c2)CCN1C(=O)CC1CCCCC1 (stereo not given),–,inactive: 7.49%
Cc1onc(-c2ccccc2)c1C(=O)c1c[nH]c(C(=O)NCc2ccccn2)c1,"inconclusive: 2.31 µM [inhibitor, partial curve, poor fit]",–
O=c1c2ccccc2nc(COc2ccccc2)n1/N=C/c1ccc(O)cc1O,active: 23.1 µM,–
CC(OC(=O)c1nc(-c2ccccc2)n(-c2ccccc2)n1)C(=O)Nc1cc(Cl)cc(Cl)c1 (stereo not given),–,inactive: -11.3%
CN(C)c1ccc(C(=O)OCC(=O)NC2CCCCC2)cc1,"inconclusive: 29.1 µM [inhibitor, single point]",–
CN(CCC#N)C(=O)COC(=O)c1ccc(Cl)c(S(=O)(=O)N(C)c2ccccc2)c1,"inconclusive: 5.8 µM [inhibitor, partial curve]",–
COCCN(CCOC)c1ncnc2c1cnn2-c1ccc(Cl)cc1,"inconclusive: 35.5 µM [inhibitor, single point]",–
COCCn1c(C)cc(O)c(C(c2ccccc2)N2CCN(c3ccc(F)cc3)CC2)c1=O (stereo not given),–,inconclusive: -30.2% [inhibitor]
CC(C)C(C(=O)NCc1ccccc1)N1CCN(c2ccccc2F)CC1 (stereo not given),"inconclusive: 29.1 µM [inhibitor, single point]",–
O=C(NCCc1ccc(Cl)cc1)c1ccc(CS(=O)(=O)Cc2ccc(F)cc2)o1,"inconclusive: 18.4 µM [inhibitor, single point]",–
O=S(=O)(NCC(c1ccco1)N1CCN(c2ccc(F)cc2)CC1)c1ccc2c(c1)OCCO2 (stereo not given),"inconclusive: 23.1 µM [inhibitor, single point]",–
Cc1cccc2c(N=NC(=O)c3ccc(NS(=O)(=O)c4cccs4)cc3)c(O)[nH]c12,"inconclusive: 16.4 µM [inhibitor, partial curve]",–
O=C1CCCC2=C1C(c1ccccc1)NC(=S)N2 (stereo not given),–,inactive: -19.2%
COC(=O)C1=C(C)N=C2SCCC(=O)N2C1c1cccs1 (stereo not given),–,inactive: -0.0407%
OC(CNc1ncnc2sccc12)c1ccccc1 (stereo not given),active: 5.17 µM,–
COc1ccc(OC)c(/C=C/C(=O)N2CCCc3ccccc32)c1,"inconclusive: 25.9 µM [inhibitor, single point]",–
COc1ccc(CCN(Cc2ccccn2)C(=S)Nc2ccc(C)cc2)cc1OC,"inconclusive: 20.6 µM [inhibitor, single point]",–
COc1cc(NS(=O)(=O)c2ccc(NC(=O)CCC(=O)O)cc2)nc(OC)n1,–,inactive: -20.8%
COc1ccc(/C=N/NC(=O)c2cccc(Br)c2)cc1COc1ccccn1,–,inactive: -2.79%
CCc1nnc(NC(=O)CCS(=O)(=O)Cc2ccccc2)s1,"inconclusive: 29.1 µM [inhibitor, single point]",–
Cc1cccc(C)c1Nc1nnc(SCc2nc3ccccc3c(=O)[nH]2)s1,"inconclusive: 29.1 µM [inhibitor, single point]",–
O=C(NCCS(=O)(=O)N1CCN(c2ccccc2F)CC1)c1cc(=O)c2ccccc2o1,"inactive and inconclusive: 16.4 µM [inhibitor, single point]",–
